Measured values published in patent US20230272055A1, “ANTI-MUTANT CALRETICULIN (CALR) ANTIBODIES AND USES THEREOF” (Incyte Corporation, priority 2021, published 2023).

T1: MPL dimerization in HAP1 cells transfected with MPL-LgBiT, MPL-smBiT, human JAK2 and mutant CALR Type 1 (Homo sapiens, UniProt P27797)
T1 construct: the full-length WT or mutant CALR Type 1 protein (full-length cds cloned into the pD2529 vector, ATUM Bio); expressed in transfected cells; host or cells: HAP1 cells knocked out for human JAK2 (Horizon Discovery, Ltd.), transient transfection
T1 sequence (P27797 with tags, fused parts or gaps): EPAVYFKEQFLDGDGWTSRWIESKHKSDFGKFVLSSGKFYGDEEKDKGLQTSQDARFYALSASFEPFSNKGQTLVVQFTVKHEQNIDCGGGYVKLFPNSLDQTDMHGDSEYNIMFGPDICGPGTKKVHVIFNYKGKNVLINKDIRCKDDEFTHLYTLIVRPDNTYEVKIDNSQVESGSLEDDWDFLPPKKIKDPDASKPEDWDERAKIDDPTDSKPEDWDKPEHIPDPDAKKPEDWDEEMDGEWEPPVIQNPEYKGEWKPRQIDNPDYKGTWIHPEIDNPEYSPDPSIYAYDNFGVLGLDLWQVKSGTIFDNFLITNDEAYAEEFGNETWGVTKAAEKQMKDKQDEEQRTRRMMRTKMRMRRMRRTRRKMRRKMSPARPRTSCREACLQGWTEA

B1: 65 (antibody)
heavy: EVQLVQSGAEVKKPGASVKVSCKVSGYTLTELSMQWVRQAPGKGLEWMGGFDPDDGETMYAEKFQGRLTVTEDTSTDTVYMELRSLTSEDTALYFCATSPGYDFFDYWGQGTLVTVSSASTKGPSVFPLAPSSKSTSGGTAALGCLVKDYFPEPVTVSWNSGALTSGVHTFPAVLQSSGLYSLSSVVTVPSSSLGTQTYICNVNHKPSNTKVDKRV[omitted - human IgG1 Fc with changes]
light: SYVLTQPPSVSVAPGKTARITCTGTSSDVGGYNYVSWYQQKPGQAPVLVVYEVSNRPSGIPERFSGSNSGNTATLTISRVEAGDEADYYCQVWDSSNDLLIFGGGTKLTVLGQPKAAPSVTLFPPSSEELQANKATLVCLISDFYPGAVTVAWKADSSPVKAGVETTTPSKQSNNKYAASSYLSLTPEQWKSHRSYSCQVTHEGSTVEKTVAPTECS
B2: 74 (antibody)
heavy: EVQLVQSGAEVKKPGASVKVSCKVSGYTLTELSMQWVRQAPGKGLEWMGGFDPDDAETMYAEKFQGRLTVTEDTSTDTVYMELSSLRSEDTAVYFCATSPGYDFFDYWGQGTLVTVSSASTKGPSVFPLAPSSKSTSGGTAALGCLVKDYFPEPVTVSWNSGALTSGVHTFPAVLQSSGLYSLSSVVTVPSSSLGTQTYICNVNHKPSNTKVDKRV[omitted - human IgG1 Fc with changes]
light: B1 light

Columns and labels:
[1] = target: T1, MPL dimerization in HAP1 cells transfected with MPL-LgBiT, MPL-smBiT, human JAK2 and mutant CALR Type 1; assay: Inhibition of MPL dimerization (MPL-LgBiT/MPL-smBiT luminescence); type: cell-based; conditions: percent inhibition compared to isotype control; FIGS. 4A-4G
Description: Inhibition of MPL dimerization was tested as a potential mechanism of action of the anti-mutCALR antibodies. HAP1 cells knocked out for human JAK2 (Horizon Discovery, Ltd.) were transiently transfected with vectors encoding the MPL-LgBiT and MPL-smBiT fusion proteins (Promega Corp.). Also included in the transfection were vectors encoding the full-length human JAK2 and the full-length WT or mutant CALR Type 1 protein (full-length cds cloned into the pD2529 vector, ATUM Bio). The cells were transfected in 96 well plates using Trans-IT 2020 reagent (Mirus Bio LLC) with equivalent amounts of each plasmid. Cells were then incubated at 37° C., 5% CO2. 6 hours post-transfection, antibodies were diluted into growth medium (IMDM, 10% FBS) and added to the cells at the indicated concentrations. The plates were incubated overnight and the growth medium was replaced with 100 μl OPTI-MEM I, no phenol red, containing the same concentrations of antibodies. After 1 hour at 37° C., 5% CO2, 25 μl NanoGlo Live Cell Reagent (Promega) was added to each well. Plates were returned to the incubator for 30 minutes before luminescence was read on a PHERAstar FSX (BMG Labtech). Data was analyzed using GraphPad PRISM Software (version 7.04) and expressed as percent inhibition compared to isotype control.
The amino acid sequences for the MPL-LgBiT and MPL-smBiT fusion proteins used in this Example are: […]

[2] = target: T2, recombinant MBP-mutCALR Type 2 fusion protein (Homo sapiens, UniProt P27797); assay: Biacore SPR binding kinetics, Experiment 3
T2 construct: His6 (N); purchased Cepter (cepterbiopartners.com), custom made
Description: Experiment 2: Recombinant MBP-mutCALR Type 1 fusion protein was custom made at Cepter (cepterbiopartners.com). Data for the interaction of antibodies with recombinant mutCALR protein were collected at 25° C. on a Biacore 8K instrument (Cytiva, Marlborough, Mass.), and all reagents were obtained from Cytiva unless otherwise specified. The experiments were conducted using Tris-buffered saline (pH 7.2), 0.005% Surfactant P20, 1 mM CaCl2) as running buffer. To prepare the capture surfaces, anti-human IgG (Fc) antibodies (Product #29234600) was amine-coupled onto a CM4 chip (Product #BR100534) under standard conditions using an Amine Coupling Kit (Product #BR100050). Anti-mutCALR antibodies were captured onto the chip surface by injecting over flow cell 2 only at a flow rate of 10 μL/min for 30 seconds. Typical capture levels were in the range of 15-25RU. Recombinant MBP-mutCALR Type 1 fusion protein was prepared at nominal concentrations of 0, 0.75, 2.22, 6.67, 20, and 60 nM and injected over both flow cells 1 and 2 for 150 seconds at a flow rate of 69 L/min, followed by a 230-second dissociation phase at the same flow rate. The kinetics parameters were obtained by applying 1:1 binding model to fit the data from multiple-cycle injection experiments using Biacore Insight Evaluation software.
Experiment 3: The amino acid sequence of recombinant MBP-mutCALR Type 2 fusion protein used in this Experiment 3 is:
Recombinant MBP-mutCALR Type 2 fusion protein was custom made at Cepter (cepterbiopartners.com). Data for the interaction of antibodies with recombinant MBP-mutCALR Type 2 fusion protein were collected as described in Experiment 2. The chip used was a Biacore Series S Sensor Chip CM4 with anti-huFc immobilized onto the chip surface. Recombinant MBP-mutCALR Type 2 fusion protein was prepared at nominal concentrations of 1.1, 3.3, 10, 30, and 90 nM. Typical capture levels were in the range of 16-37RU.

[3] = target: T3, recombinant MBP-mutCALR Type 1 fusion protein (Homo sapiens, UniProt P27797, DEL40-40); assay: Biacore SPR binding kinetics, Experiment 2 (parental and variant antibodies); conditions: Biacore 8K, 25° C., 1:1 binding model
T3 construct: His6 (N); purchased Cepter (cepterbiopartners.com), custom made

Molecule | inhibition of MPL dimerization [1] | ka [2] [M⁻¹ s⁻¹] | kd [2] [s⁻¹] | ka [3] [M⁻¹ s⁻¹] | kd [3] [s⁻¹]
B1 | inhibit MPL dimerization | 668000 | 0.00424 | 4.6e+06 | 0.00231
B2 | inhibit MPL dimerization | 854000 | 0.00579 | 1.29e+06 | 0.00153
